The text below walks through data of PubChem BioAssay AID488969 (Vanderbilt High Throughput Screening Facility, 2010).

Whole data set: some 110,000 compounds, median “z-score” near -0.1, cut for the highest 2% near 2. Some of the results follow. Activity calls are given as the source filed them.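 The calls were made as follows: active = z-score in the third read window above 3 or below -3; inactive = the rest.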

The assay concerns the target Metabotropic glutamate receptor 8 (Rattus norvegicus) (UniProt P70579). Briefly: mGluR8 Gi/Go-coupled signaling modulation – cell-based, rat, thallium flux, HTS, primary screen (AID 488969). The settings on record: HEK293 rat mGluR8, GIRK (G protein-gated inwardly rectifying potassium channel) thallium flux, FluoZin2; at 10 µM; stronger effect = higher value; submaximal glutamate (EC20) added with thallium.
Sequence of UniProt P70579 (P70579 whole entry, looked up): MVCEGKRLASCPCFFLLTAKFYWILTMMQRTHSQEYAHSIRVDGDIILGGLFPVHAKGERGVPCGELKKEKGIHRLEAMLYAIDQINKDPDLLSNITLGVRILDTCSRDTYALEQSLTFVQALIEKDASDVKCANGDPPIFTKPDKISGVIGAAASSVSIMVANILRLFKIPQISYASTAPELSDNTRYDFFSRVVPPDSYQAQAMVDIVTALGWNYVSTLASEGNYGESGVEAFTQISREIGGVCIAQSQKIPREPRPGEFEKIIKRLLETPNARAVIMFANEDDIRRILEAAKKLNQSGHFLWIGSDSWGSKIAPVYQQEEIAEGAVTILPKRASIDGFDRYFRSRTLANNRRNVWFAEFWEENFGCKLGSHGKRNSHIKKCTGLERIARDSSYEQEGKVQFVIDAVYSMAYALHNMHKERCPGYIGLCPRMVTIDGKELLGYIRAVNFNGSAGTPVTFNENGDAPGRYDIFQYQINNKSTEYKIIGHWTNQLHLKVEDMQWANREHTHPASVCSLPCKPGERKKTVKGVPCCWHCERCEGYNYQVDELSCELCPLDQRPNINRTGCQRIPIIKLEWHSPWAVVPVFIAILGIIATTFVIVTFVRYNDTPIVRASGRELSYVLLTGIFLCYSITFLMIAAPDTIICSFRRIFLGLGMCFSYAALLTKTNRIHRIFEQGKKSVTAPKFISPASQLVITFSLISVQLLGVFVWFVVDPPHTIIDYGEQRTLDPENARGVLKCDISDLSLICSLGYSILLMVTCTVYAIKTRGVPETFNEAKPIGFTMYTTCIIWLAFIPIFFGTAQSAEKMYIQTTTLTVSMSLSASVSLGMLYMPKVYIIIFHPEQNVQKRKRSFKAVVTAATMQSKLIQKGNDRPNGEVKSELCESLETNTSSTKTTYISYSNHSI
Molecule `O=C(COc1ccc(S(=O)(=O)N2CCOCC2)cc1)Nc1ccc2c(c1)OCCO2` returned a z-score of -0.135.

In turn, `CN1CCN(c2ccc([N+](=O)[O-])c(Sc3nc4ccccc4[nH]3)c2)CC1` registered a z-score of -0.352.

`Cc1ccc(NC(=S)c2nc3ccccc3[nH]2)cc1`: the z-score is -1.02.

For the molecule `CCS(=O)(=O)c1ccc2c(c1)N(S(=O)(=O)c1ccccc1)CC(C(=O)O)O2` (stereo not given), the z-score is 0.0848.

Consider `O=C(Nc1ccccc1[N+](=O)[O-])c1cccnc1Cl`, for which the z-score was -0.142.

With `CC(C)(C)c1nnc2sc(SCC(=O)c3ccccc3)nn2c1=O`, the z-score was -0.682.

`COC(=O)c1cc(OC)c(OC)cc1NC(=O)CCCCCN1C(=O)CCC1=O` registered a z-score of -0.144.

In turn, `C=C(C)Cc1c(C)c(C#N)c2nc3ccccc3n2c1N1CCCCC1` showed a z-score of -0.411.

`CCC(C)NC(=O)C(=O)NCc1ccncc1` (stereo not given) had a z-score of 0.186.

Regarding `CC(=O)COc1ncn(-c2ccccc2)n1`, the z-score is 0.552.

With `COc1ccc(C(=O)C(CO)Oc2ccccc2OC)cc1OC` (stereo not given), the z-score was 0.324.

`COc1ccc(/C=N/NC(=O)c2nonc2C)cc1` gave a z-score of 0.0688.

For `Cc1nc2cc(-n3ccc(=O)cc3)ccc2n1-c1ccccc1`, the z-score is -0.177.

The molecule `CC(C)(C)NS(=O)(=O)c1ccc(CCC(=O)N2CCCCC2)cc1` registered a z-score of -0.00207.

Molecule `Cc1csc(NC(=O)c2nc3nc(C)cc(C)n3n2)n1` showed a z-score of -0.682.

Molecule `Cc1ccc(NC(=O)CCn2nc(C)cc2C)cc1` had a z-score of -0.0783.

`COc1cccc(NC(=O)COc2nc3ccccc3nc2C)c1` displayed a z-score of -0.172.

`CCCCNS(=O)(=O)c1ccc2nc(SCC(=O)c3ccccc3OC)[nH]c2c1` showed a z-score of -0.325.

The molecule `Cc1ccc(NC(=O)CN2CCN(CCN=CC3=C(O)CC(C)(C)CC3=O)CC2)cc1` gave a z-score of -0.885.

Turning to `Clc1ccc(Cc2nn3c(-c4ccncc4)nnc3s2)cc1`, the z-score was -0.204.

Molecule `CCCCCCC(=O)Nc1nc(C)c(-c2csc(Nc3ccc(Cl)cc3)n2)s1` came in with a z-score of -0.287.

Take `Cc1cc(C)c(C)c(OCCCCn2cnc3ccccc3c2=O)c1`: the z-score was -0.2.

Take `O=C1CCc2cc(S(=O)(=O)N3CCN(c4cccc(Cl)c4)CC3)ccc2N1`: the z-score was found to be 0.66.

`CC1Cc2ccccc2N1CC(=O)Nc1ccc2c(c1)OC(F)(F)O2` (stereo not given) yielded a z-score of -0.294.

Regarding `O=S(=O)(c1cccc(Cl)c1)N1CCCC1`, the z-score was -0.173.

`O=C(CSCC(=O)NC1CCCC1)Nc1ccccc1` yielded a z-score of -0.362.

In turn, `COc1cccc(Cn2c(N)c(C#N)c3nc4ccccc4nc32)c1OC` yielded a z-score of 0.791.

`CCCOc1ccccc1NC(=O)c1c(-c2ccccc2)noc1C` returned a z-score of -0.547.

`O=C(NCC1CCCO1)c1ccc2c(=O)n(CCc3ccccc3)c(=O)[nH]c2c1` (stereo not given) returned a z-score of 0.355.

Regarding `CCCS(=O)(=O)Nc1c(C(=O)O)[nH]c2ccccc12`, the z-score is -0.0853.

Regarding `Cc1onc(-c2ccccc2)c1-c1n[nH]c(=S)n1-c1ccccc1`, the z-score is -0.237.

As for `COc1ccc(OC)c(C2C3=C(CCCC3=O)NC3=C2C(=O)CCC3)c1`, the z-score is -0.586.

Take `CCCCSc1nc(N)c(NC(=O)c2ccco2)c(=O)[nH]1`: the z-score is active: 3.07.

Turning to `Cc1ccnn1CCSCC(=O)O`, the z-score came out at 0.122.

Take `O=C(NCCc1ccccc1)C1(c2ccccc2)CC1(Cl)Cl` (stereo not given): the z-score amounted to 0.132.

In turn, `CCOC(=O)C1=C(O)/C(=C/c2cn(CC(=O)N3CCCC3)c3ccccc23)SC1=Nc1ccccc1` yielded a z-score of -0.0166.

The molecule `COc1ccc(-c2nnc(SCC(=O)Nc3cc(S(=O)(=O)N4CCCCC4)ccc3Cl)n2N)cc1` returned a z-score of -0.429.

In turn, `O=S(=O)(c1ccc2nc(SCc3ccc(Cl)cc3)[nH]c2c1)N1CCOCC1` returned a z-score of -0.0233.

`O=C(CCn1cnc2ccccc2c1=O)Nc1nc2c(s1)CCCC2`: the z-score was -0.216.

For the molecule `Cc1cccc2sc(NC(=O)CN(C)S(=O)(=O)c3cccs3)nc12`, the z-score stood at 1.93.

Molecule `COc1ccc(OC)c(C(c2nnnn2C2CCCC2)N2CCc3ccccc3C2)c1` (stereo not given) returned a z-score of -0.479.

The molecule `CC(C)COc1ccc(C(=O)Nc2scc(-c3ccc(Cl)cc3Cl)c2C(N)=O)cc1` gave a z-score of -0.183.

`COc1ccc(S(=O)(=O)N2CCCCC2)cc1Br` registered a z-score of 0.173.

Regarding `Cc1nn2c(N3CCN(C4CCCC4)CC3)cc(C(C)(C)C)nc2c1-c1ccccc1`, the z-score was 0.26.

The molecule `CC(=O)Nc1cc2c(cc1NC(=O)Cn1nc(-c3ccc4c(c3)OCCO4)ccc1=O)OCCO2` came in with a z-score of -0.275.

`CC(=O)c1cccc(NC(=O)C(OC(=O)c2cccs2)c2ccccc2)c1` (stereo not given): the z-score was -0.333.

On to `CC(C)(C)NC(=O)NC(=O)COC(=O)Cc1coc2ccc3ccccc3c12`, for which the z-score stood at 0.0031.

In turn, `CC(=O)c1c(N2CCN(Cc3ccccc3)CC2)nc(=S)n(Cc2ccccc2)c1C` displayed a z-score of -0.0789.

In the case of `COc1cc(C(=O)OC(C)CN2CCOCC2)cc(OC)c1OC` (stereo not given), the z-score is -0.172.

On to `CC(=O)Nc1cc(Cl)ccc1OS(=O)(=O)c1ccc(C)cc1`, for which the z-score is -0.12.

`O=C(CSCc1ccc(Cl)cc1)N/N=C/c1ccccc1` yielded a z-score of -0.128.

`CCOc1ccc(C(F)(F)F)cc1NC(=O)COc1ccc(C(F)(F)F)cc1[N+](=O)[O-]` showed a z-score of -0.107.

For `Cc1ccccc1N1CCN(Cc2cccc(C(=O)O)c2)CC1`, the z-score stood at 0.536.

In turn, `O=C(CC(c1ccccc1)c1ccccc1)NCc1cccnc1` gave a z-score of 0.00676.

With `CC(C)Oc1ccccc1C1CC(=O)Nc2c1c(=O)n(C)c(=O)n2C` (stereo not given), the z-score was 0.036.

As for `Cc1cc(C)n2c(SCC(=O)NCc3ccco3)nnc2n1`, the z-score was -0.0687.

The molecule `CC(=O)c1ccc(NC(=O)Cn2nc(C)cc2C)cc1` gave a z-score of 0.0345.

The molecule `O=C(NC1CCCCC1)c1ccc(S(=O)(=O)N2CCOCC2)cc1` yielded a z-score of 0.588.

`O=S(=O)(NCc1ccccc1)c1ccc(S(=O)(=O)N(Cc2ccccn2)C2CCCC2)cc1` displayed a z-score of 0.0498.

`CC(C)CC(=O)Nc1cccc(-c2csc(-c3ccccc3)n2)c1` had a z-score of 0.159.

`CC(C)CCNC(=O)NC(=O)COC(=O)C1=COCCO1`: the z-score is -0.0887.

Consider `CCOCCCNCc1ccc(Cl)cc1`, for which the z-score was -0.338.

`COc1ccc2[nH]c(O)c(NC(C)=O)c2c1` returned a z-score of 0.0483.

On to `Cc1c(NC(=O)CSc2nncc3ccccc23)c(=O)n(-c2ccccc2)n1C`, for which the z-score was -0.206.

Molecule `CC(C)Cn1c(SCC(=O)N2CCc3ccccc3C2)nc2cc(Cl)ccc2c1=O` came in with a z-score of 0.543.

As for `O=[N+]([O-])c1ccc(CSc2nnc(-c3cnccn3)o2)cc1`, the z-score is -0.0463.

The molecule `Cc1cc(N2C(=O)C(=O)/C(=C(/O)c3ccc(F)cc3)C2c2ccc(Cl)cc2)no1` (stereo not given) gave a z-score of -2.22.

Consider `Cc1cccc(N2CCN(C(=O)C3CCN(S(=O)(=O)c4cccc5cccnc45)CC3)CC2C)c1` (stereo not given), for which the z-score was -0.277.

In the case of `COc1ccc(C2C(C#N)=C(C)NC3=C2S(=O)(=O)c2ccccc23)cc1` (stereo not given), the z-score was -0.505.

`CCOc1cc(S(=O)(=O)NCc2ccc(OC)cc2)c(OCC)cc1-n1cnnn1` registered a z-score of -0.123.

For the molecule `Cc1ccc(NC(=O)N2CCC(C(=O)NCCC3=CCCCC3)CC2)cc1`, the z-score is 0.266.

In turn, `CCn1c(NCc2ccco2)nc2c1c(=O)n(C)c(=O)n2C` registered a z-score of 0.397.

In turn, `CC(=O)N1CCc2cc(C(=O)CN3CCN(C(=O)c4ccco4)CC3)ccc21` registered a z-score of 0.0857.

Molecule `Fc1ccccc1CN1CCCCCCC1` gave a z-score of -0.0629.

`O=C(Nc1ccc(S(=O)(=O)NC2CCCCC2)cc1)c1ccc(Br)o1` displayed a z-score of -0.321.

For the molecule `COc1ccc(N2CCN(c3c(S(=O)(=O)c4ccccc4)cnc4ccc(OC)cc34)CC2)cc1`, the z-score is -0.154.

In turn, `COc1ccccc1C(=O)Nc1ccc(Oc2nnc(-c3ccc(C)cc3)c3ccccc23)cc1` showed a z-score of -0.186.

`O=C(Cc1ccccc1)N/N=C/C=C/c1cccc([N+](=O)[O-])c1` yielded a z-score of -0.0919.

Turning to `O=C(CCl)NNc1cccc(Cl)n1`, the z-score is 0.0611.

Consider `CNc1nc2[nH]c(=O)c3c(c2s1)OC(N)=C(C#N)C3c1ccccc1` (stereo not given), for which the z-score was -0.149.

In the case of `CCCCCC(=O)N1CC2(CC(c3cccc(NC(=O)c4ccccc4)c3)=NO2)C[C@@H]1C(N)=O` (stereo not given in full), the z-score is -0.104.

For the molecule `Cn1c(CSCc2ccc(Cl)cc2)nnc1SCC(=O)Nc1nccs1`, the z-score is -0.542.

In turn, `O=[N+]([O-])c1ccc(/C=N/NC(=S)Nc2ccccc2C(F)(F)F)o1` displayed a z-score of 1.06.

`CCCCCn1c(=O)c(-c2nc3ccccc3c(=O)[nH]2)c(O)c2ccccc21` registered a z-score of 0.548.

`O=c1n(Cc2ccccc2F)c2ccccc2n1Cc1ccccc1F` registered a z-score of -0.282.

The molecule `COc1ccc(CNC2CCCCC2)cc1` showed a z-score of 0.437.

For the molecule `CC1CN(C(=O)CCN2C(=O)c3ccccc3C2=O)CC(C)O1` (stereo not given), the z-score is 0.244.

`CC(C)C(NC(=O)c1ccc(Cl)cc1)C(=O)O` (stereo not given) showed a z-score of 1.93.

`Cc1ccccc1S(=O)(=O)c1c(C)cc(C)n(C(C)C)c1=O` showed a z-score of -0.131.

On to `Cc1ccccc1NC(=O)CSc1nc2ccccc2o1`, for which the z-score is -0.058.

`Cc1c(Cl)cccc1NC(=O)CC1SC(=NCC2CCCO2)NC1=O` (stereo not given) showed a z-score of -0.244.

With `Cc1cc(C)nc(SCC(=O)Nc2ccccc2[N+](=O)[O-])n1`, the z-score was -0.0823.

Regarding `CN=C(Nc1ccc2c(c1)OCO2)SC1CC(=O)N(c2ccccc2)C1=O` (stereo not given), the z-score is -0.0948.

Molecule `CC(C)(C)NC(=O)c1cc([N+](=O)[O-])ccc1N1CCCCC1` displayed a z-score of -0.12.

Regarding `Cc1nnc(NC(=O)CC(CN(C)S(=O)(=O)c2ccccc2)c2ccccc2)s1` (stereo not given), the z-score was -0.403.

In turn, `COc1cc(-c2nnc(SC/C=C/c3ccccc3)n2N)cc(OC)c1OC` yielded a z-score of -0.458.

In turn, `CCc1ccccc1NC(=O)CSc1nnc(Cn2cnc3ccccc32)o1` returned a z-score of -0.219.

Take `COc1ccc2c(c1)SC(C)CC2=O` (stereo not given): the z-score is -0.303.

Take `COC(=O)C1CCN(C(=O)COC(=O)Cc2c[nH]c3ccccc23)CC1`: the z-score was -0.393.

Consider `CC(C)C(NS(=O)(=O)c1cccc2nsnc12)C(=O)N1CCn2c1nc1ccccc12` (stereo not given), for which the z-score is -0.153.

In turn, `CCOC(=O)Cc1csc(/C(=N/O)C(N)=O)n1` showed a z-score of 0.267.

Consider `CC(=O)Nc1nc2ccccc2n1Cc1ccccc1C`, for which the z-score is -0.289.

On to `CCCCN(C)C(=O)c1ccc(CS(=O)(=O)c2ccccc2C)o1`, for which the z-score worked out at 0.105.

In turn, `COc1ccc(NC(=O)C2CCN(Cc3cnn(-c4ccccc4)c3-n3cccc3)CC2)cc1OC` showed a z-score of -0.402.

Turning to `COc1ccc(OCCNc2cc(Cl)ccc2[N+](=O)[O-])cc1`, the z-score is -0.0226.

`CS/C(=N\S(=O)(=O)c1cccs1)Nc1ccc(Cl)cc1`: the z-score is -0.467.

Molecule `Cc1c(Cl)cnc(NC(=O)COC(=O)CCS(=O)(=O)c2ccccc2)c1Cl` came in with a z-score of -0.05.

As to `Cc1cc(C(=O)COC(=O)Cn2cnc3c2c(=O)n(C)c(=O)n3C)c(C)n1C`, the z-score is -0.445.

In turn, `CSCC[C@H](NC(=O)C1CCN(S(=O)(=O)c2ccc(C)cc2)CC1)C(=O)NCc1ccco1` gave a z-score of -0.0105.

For `Cc1ccc2[nH]c(-c3cccc(N)c3)cc2c1`, the z-score is -0.0452.
